ChEMBL document CHEMBL4888484, “Replenishing the malaria drug discovery pipeline: Screening and hit evaluation of the MMV Hit Generation Library 1 (HGL1) against asexual blood stage Plasmodium falciparum ,using a nano luciferase reporter read-out” (2022)
The campaign covered roughly 150,000 compounds. About 540 (0.36%) showed an effect of 50% or more. The list shows a part of the results.

tested on: Plasmodium falciparum; assay: Primary screen in NF54 nanoGlo assay, in single point, at 2uM, 72h; a lower Z score goes with more inhibition; format: functional, Erythrocyte; conditions: timepoint 72 hour

Question: What does the source list for `O=C(CCN1CCCCO1)NCc1cccnc1N1CCCCCCC1`?
Answer: % Inhibition: 13%; Z score: -1.64

Question: How did the “% Inhibition” value turn out when `O=C(O)[C@H]1CCCN(C(=O)NC2CC=C(c3ccc(F)cc3)CC2)C1` (stereo partly specified) was run?
Answer: -13%

Question: And the Z score?
Answer: 2.6

Question: What does the source list for `C#CCN(Cc1nc(C)ccc1O)[C@H]1CCS(=O)(=O)C1`?
Answer: % Inhibition: 10%; Z score: -1.74

Question: What does the source list for `O=C(Nc1cccc2nsnc12)C1CCC1`?
Answer: % Inhibition: 0%; Z score: -0.03

Question: Which results are given for `O=C(c1cc(-c2ccccc2)c(N2CCOCC2)s1)N1CCC(C(=O)N2CCCCCC2)CC1`?
Answer: % Inhibition: 9%; Z score: -1.59

Question: How did the “% Inhibition” value turn out when `O=C([C@@H]1CNCCO1)N1CCN(c2ccccc2F)CC1` was run?
Answer: -17%

Question: What about the Z score of the same compound?
Answer: 1.98

Question: Which results are given for `CN(C)S(=O)(=O)CCNc1ncnc2c1Cc1ccccc1OC2`?
Answer: % Inhibition: -9%; Z score: 1.72

Question: Which “% Inhibition” value does the source give for `Cn1cnc(C(=O)N2CCN(C(=O)Cc3c[nH]c4ccccc34)CC2)n1` here?
Answer: 13%

Question: What about the Z score of the same compound?
Answer: -1.7

Question: Which “% Inhibition” value does the source give for `CCc1ncc(CN(C)C(=O)[C@@H](N)C(C)C)s1` here?
Answer: -10%

Question: What about the Z score of the same compound?
Answer: 1.03

Question: For `c1cc2ncnc(NC3CCCCCC3)c2cn1`, which “% Inhibition” value is on record?
Answer: -6%

Question: What about the Z score of the same compound?
Answer: 1.04

Question: How did the “% Inhibition” value turn out when `COCC(=O)Nc1cc(C)nn1-c1nc2c(cnn2-c2ccc(F)cc2)c(=O)[nH]1` was run?
Answer: -12%

Question: And the Z score?
Answer: 2.34

Question: How did the “% Inhibition” value turn out when `CCOC(=O)c1nc(NCc2ccc(Cl)cc2)c2c(C)noc2n1` was run?
Answer: 11%

Question: What about the Z score of the same compound?
Answer: -2

Question: `O=S(=O)(NC[C@H]1OC[C@@H](NCc2ccccc2F)[C@@H]1O)c1ccccc1` was tested. Which “% Inhibition” value did it give?
Answer: -14%

Question: What about the Z score of the same compound?
Answer: 2.19

Question: With `CC[C@@H](C(=O)N[C@H]1CC[C@H](Oc2ncccn2)CC1)c1ccccc1` as the compound, how does the “% Inhibition” value read?
Answer: 18%

Question: What about the Z score of the same compound?
Answer: -2.04

Question: Which “% Inhibition” value does the source give for `CCC(CC)(CC(=O)Nc1cccc(CO)c1)C(=O)O` here?
Answer: -3%

Question: And the Z score?
Answer: 0.64

Question: Which “% Inhibition” value does the source give for `COC1C2CC3CN(C(=O)CCc4nc5ccccc5o4)C1C3C2` (stereo unspecified) here?
Answer: -3%

Question: What about the Z score of the same compound?
Answer: 0.64

Question: How did the “% Inhibition” value turn out when `Cc1nc(CC(N)=NOCCN2CC3CCC(C2)O3)cs1` was run?
Answer: -16%

Question: And the Z score?
Answer: 1.32

Question: How did the “% Inhibition” value turn out when `C[C@H](N1CCN(C(=O)NCCOc2cccnc2)CC1)C(F)(F)F` was run?
Answer: -6%

Question: What about the Z score of the same compound?
Answer: 0.84

Question: `O=C(CN1CCN(c2ccc(C(F)(F)F)nn2)CC1)Nc1ccc(Cl)cc1` was tested. Which “% Inhibition” value did it give?
Answer: -5%

Question: What about the Z score of the same compound?
Answer: 0.67

Question: `CCCc1occc1C(=O)N[C@@H](C)C1(OC)CCC1` was tested. Which “% Inhibition” value did it give?
Answer: -10%

Question: What about the Z score of the same compound?
Answer: 1.31

Question: For `Brc1ccc(-c2csc(N3CC[C@H](c4ccccc4)C3)n2)cc1`, which “% Inhibition” value is on record?
Answer: -10%

Question: What about the Z score of the same compound?
Answer: 1.33

Question: Which results are given for `Cc1ccccc1-c1noc(CN(C)CC(=O)Nc2cccc(C)c2C)n1`?
Answer: % Inhibition: 4%; Z score: -0.42

Question: Which “% Inhibition” value does the source give for `CCCCc1nnc(NCc2ccon2)o1` here?
Answer: -11%

Question: And the Z score?
Answer: 1.27

Question: How did the “% Inhibition” value turn out when `CC(=O)Nc1ccc(CNc2nnc(C3CCCCC3)o2)cc1` was run?
Answer: -7%

Question: And the Z score?
Answer: 0.87

Question: What does the source list for `O=C1C2CCCC1CC(C(=O)N1CCc3ccccc31)C2` (stereo unspecified)?
Answer: % Inhibition: -11%; Z score: 1.29

Question: `Cc1cc(CC(=O)Nc2c(F)cccc2NC2CC2)no1` was tested. Which “% Inhibition” value did it give?
Answer: -5%

Question: What about the Z score of the same compound?
Answer: 0.54

Question: What does the source list for `CC(C)(C)n1cc(CN2c3ccccc3CC[C@@H]2CCO)cn1`?
Answer: % Inhibition: -12%; Z score: 2.24

Question: Which “% Inhibition” value does the source give for `Cc1ncn(C)c1C(=O)N1CCC(Cn2ccnc2)CC1` here?
Answer: -13%

Question: What about the Z score of the same compound?
Answer: 1.39

Question: With `Cc1nsc(C)c1NC(=O)C(F)F` as the compound, how does the “% Inhibition” value read?
Answer: 0%

Question: What about the Z score of the same compound?
Answer: -0.07

Question: `CC1(C(=O)Nc2cccc(C(=O)NC3CC3)c2)COC1` was tested. Which “% Inhibition” value did it give?
Answer: -10%

Question: What about the Z score of the same compound?
Answer: 1.57

Question: With `C[C@H]1CCN(C(=O)Nc2ccc(C(F)F)cc2)CCS1(=O)=O` as the compound, how does the “% Inhibition” value read?
Answer: 6%

Question: What about the Z score of the same compound?
Answer: -0.86

Question: For `CCc1ccc(C(=O)Nc2ccc3c(c2)N(C)C(=O)c2ccccc2O3)cc1`, which “% Inhibition” value is on record?
Answer: -12%

Question: What about the Z score of the same compound?
Answer: 1.73

Question: `CCCc1nc(C(=O)NCc2cn3cccnc3n2)cs1` was tested. Which “% Inhibition” value did it give?
Answer: -15%

Question: And the Z score?
Answer: 2.92

Question: Which “% Inhibition” value does the source give for `CCOC(=O)C1=C(c2ccccc2)S/C(=C2/C(=S)C(C)(C)N(C(C)=O)c3cc(OCC)ccc32)S1` here?
Answer: 7%

Question: What about the Z score of the same compound?
Answer: -0.87

Question: With `Cc1cc(C(=O)N(CC(=O)O)C2CC2)c(C)n1-c1nccs1` as the compound, how does the “% Inhibition” value read?
Answer: 3%

Question: And the Z score?
Answer: -0.53

Question: `Cn1ccc(C(=O)N2CC[C@@]3(CCCN(CC4CCC4)C3=O)C2)n1` was tested. Which “% Inhibition” value did it give?
Answer: 2%

Question: And the Z score?
Answer: -0.44

Question: What does the source list for `Cc1nc(C(=O)N2CC[C@H]2c2cccs2)cs1`?
Answer: % Inhibition: -2%; Z score: 0.38

Question: With `CC[C@H](OC1CCCC1)C(=O)Nc1cccc(C)n1` as the compound, how does the “% Inhibition” value read?
Answer: 1%

Question: What about the Z score of the same compound?
Answer: -0.13

Question: What does the source list for `COCCC1(CNC(=O)Nc2ccc(C(=O)OC)nn2)CC1`?
Answer: % Inhibition: -18%; Z score: 1.62

Question: `C[C@H](NC(=O)C1CCC1)C(=O)Nc1nnc(C2CC2)s1` was tested. Which “% Inhibition” value did it give?
Answer: -15%

Question: And the Z score?
Answer: 1.71

Question: Which results are given for `COC(=O)[C@H]1CN(Cc2ccc(F)cc2C)CCS(=O)(=O)C1`?
Answer: % Inhibition: -17%; Z score: 2.21

Question: Which “% Inhibition” value does the source give for `COCc1cc(CC2(NCc3ccc(N(C)C)cc3)COC2)no1` here?
Answer: 0%

Question: And the Z score?
Answer: 0.01

Question: How did the “% Inhibition” value turn out when `CN1CCN2[C@@H](C1)CN(Cc1ccccc1)C[C@@]2(C)CO` was run?
Answer: 20%

Question: What about the Z score of the same compound?
Answer: -3.12
